# Test results: the supplement of paper PMC8728848
# Some of the results follow.
# Experiments:
# Experiment in all cases: glycan array binding signal (z-score within array); higher = stronger binding
# Details in all cases: glycan notation: IUPAC condensed, linker removed
# [1] = biological target: Gal(b1-4)GlcNAc(b1-3)Gal(b1-4)GlcNAc(b1-6)[Gal(b1-3)]GalNAc
# Method in brief: (§1)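 Glycan array data came from 3228 arrays in the Consortium for Functional Glycomics database, and only arrays with an available protein sequence were kept. Glycan names were put into IUPAC-condensed notation, and columns mapping to the same glycan were averaged. The binding signal is a within-array Z-score, averaged across arrays of one protein sequence run at different concentrations or buffers and across linkers. A negative Z-score can be read as non-binding.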
# [2] = biological target: Gal(b1-4)GlcNAc(b1-3)Gal(b1-4)[Fuc(a1-3)]GlcNAc(b1-3)Gal(b1-4)[Fuc(a1-3)]GlcNAc
# Method in brief: as §1
# [3] = biological target: Gal(b1-4)GlcNAc(b1-3)GalNAc
# Method in brief: as §1
# [4] = biological target: Gal(b1-4)GlcNAc(b1-3)[Fuc(a1-3)GlcNAc(b1-6)]Gal(b1-4)Glc
# Method in brief: as §1
# [5] = biological target: Gal(b1-4)GlcNAc(b1-3)[Gal(b1-4)GlcNAc(b1-6)]Gal(b1-4)GlcNAc
# Method in brief: as §1
# [6] = biological target: Gal(b1-4)GlcNAc(b1-3)[GlcNAc(b1-6)]Gal(b1-4)GlcNAc
# Method in brief: as §1
# [7] = biological target: Gal(b1-4)GlcNAc(b1-6)Gal(b1-4)GlcNAc
# Method in brief: as §1
# [8] = biological target: Gal(b1-4)GlcNAc(b1-6)GalNAc
# Method in brief: as §1
# [9] = biological target: Gal(b1-4)GlcNAc(b1-6)[Gal(b1-3)]GalNAc
# Method in brief: as §1
# [10] = biological target: Gal(b1-4)GlcNAc(b1-6)[Gal(b1-4)GlcNAc(b1-3)]GalNAc
# Method in brief: as §1
# [11] = biological target: Gal(b1-4)GlcNAc6P
# Method in brief: as §1
# [12] = biological target: Gal(b1-6)Gal
# Method in brief: as §1
# [13] = biological target: Gal3S(b1-3)GalNAc
# Method in brief: as §1
# [14] = biological target: Gal3S(b1-3)GlcNAc
# Method in brief: as §1
# [15] = biological target: Gal3S(b1-3)[Fuc(a1-4)]GlcNAc
# Method in brief: as §1
# [16] = biological target: Gal3S(b1-4)Glc
# Method in brief: as §1
# [17] = biological target: Gal3S(b1-4)Glc6S
# Method in brief: as §1
# [18] = biological target: Gal3S(b1-4)GlcNAc
# Method in brief: as §1
# [19] = biological target: Gal3S(b1-4)[Fuc(a1-3)]Glc6S
# Method in brief: as §1
# [20] = biological target: Gal3S(b1-4)[Fuc(a1-3)]GlcNAc
# Method in brief: as §1
# [21] = biological target: Gal3S(b1-4)[Fuc(a1-3)]GlcNAc6S
# Method in brief: as §1
# [22] = biological target: Gal3S4S(b1-4)GlcNAc
# Method in brief: as §1
# [23] = biological target: Gal3S6S(b1-4)GlcNAc
# Method in brief: as §1
# [24] = biological target: Gal3S6S(b1-4)GlcNAc6S
# Method in brief: as §1
# [25] = biological target: Gal4S(b1-4)GlcNAc
# Method in brief: as §1
# [26] = biological target: Gal4S6S(b1-4)GlcNAc
# Method in brief: as §1
# [27] = biological target: Gal6P(b1-4)GlcNAc
# Method in brief: as §1
# [28] = biological target: Gal6S(b1-3)GlcNAc
# Method in brief: as §1
# [29] = biological target: Gal6S(b1-3)GlcNAc6S
# Method in brief: as §1
# [30] = biological target: Gal6S(b1-4)Glc
# Method in brief: as §1
# [31] = biological target: Gal6S(b1-4)Glc6S
# Method in brief: as §1
# [32] = biological target: Gal6S(b1-4)GlcNAc
# Method in brief: as §1
# [33] = biological target: Gal6S(b1-4)GlcNAc6S
# Method in brief: as §1
# [34] = biological target: GalNAc(a1-3)Gal
# Method in brief: as §1
# [35] = biological target: GalNAc(a1-3)GalNAc
# Method in brief: as §1
# [36] = biological target: GalNAc(a1-3)GalNAc(b1-3)Gal(a1-4)Gal(b1-4)Glc
# Method in brief: as §1
# [37] = biological target: GalNAc(a1-3)GalNAc(b1-3)Gal(a1-4)Gal(b1-4)GlcNAc
# Method in brief: as §1
# [38] = biological target: GalNAc(b1-3)Gal
# Method in brief: as §1
# [39] = biological target: GalNAc(b1-3)Gal(a1-4)Gal(b1-4)GlcNAc
# Method in brief: as §1
# [40] = biological target: GalNAc(b1-3)Gal(a1-4)Gal(b1-4)GlcNAc(b1-3)Gal(b1-4)Glc
# Method in brief: as §1
# [41] = biological target: GalNAc(b1-3)Gal(a1-6)Gal(b1-4)Glc
# Method in brief: as §1
# [42] = biological target: GalNAc(b1-3)GalNAc
# Method in brief: as §1
# [43] = biological target: GalNAc(b1-3)GlcNAc
# Method in brief: as §1
# [44] = biological target: GalNAc(b1-4)Gal(b1-4)Glc
# Method in brief: as §1
# [45] = biological target: GalNAc(b1-4)GlcNAc
# Method in brief: as §1
# [46] = biological target: GalNAc(b1-4)GlcNAc(b1-2)Man
# Method in brief: as §1
# [47] = biological target: GalNAc(b1-4)GlcNAc(b1-2)Man(a1-3)[GalNAc(b1-4)GlcNAc(b1-2)Man(a1-6)]Man(b1-4)GlcNAc(b1-4)GlcNAc
# Method in brief: as §1
# [48] = biological target: GalNAc(b1-4)GlcNAc(b1-3)GalNAc(b1-4)GlcNAc
# Method in brief: as §1
# [49] = biological target: GalNAc(b1-4)GlcNAc6S
# Method in brief: as §1
# [50] = biological target: GalNAc(b1-6)GalNAc
# Method in brief: as §1
# [51] = biological target: GalNAc3S(b1-4)GlcNAc
# Method in brief: as §1
# [52] = biological target: GalNAc3S(b1-4)GlcNAc3S
# Method in brief: as §1
# [53] = biological target: GalNAc3S(b1-4)[Fuc(a1-3)]GlcNAc
# Method in brief: as §1
# [54] = biological target: GalNAc4S6S(b1-4)GlcNAc
# Method in brief: as §1
# [55] = biological target: GalNAc6S(b1-4)GlcNAc
# Method in brief: as §1
# [56] = biological target: Glc(a1-4)Glc
# Method in brief: as §1
# [57] = biological target: Glc(a1-4)Glc(a1-4)Glc(a1-4)Glc
# Method in brief: as §1
# [58] = biological target: Glc(a1-6)Glc(a1-6)Glc
# Method in brief: as §1
# [59] = biological target: Glc(a1-6)Glc(a1-6)Glc(a1-6)Glc
# Method in brief: as §1
# [60] = biological target: Glc(b1-4)Glc
# Method in brief: as §1
# [61] = biological target: Glc(b1-6)Glc
# Method in brief: as §1
# [62] = biological target: GlcA(b1-3)Gal
# Method in brief: as §1
# [63] = biological target: GlcA(b1-3)GlcNAc
# Method in brief: as §1
# [64] = biological target: GlcA(b1-6)Gal
# Method in brief: as §1
# [65] = biological target: GlcA3S(b1-3)Gal(b1-4)GlcNAc(b1-2)Man
# Method in brief: as §1
# [66] = biological target: GlcA3S(b1-3)Gal(b1-4)GlcNAc(b1-3)Gal(b1-4)Glc
# Method in brief: as §1
# [67] = biological target: GlcNAc(a1-3)Gal(b1-4)GlcNAc
# Method in brief: as §1
# [68] = biological target: GlcNAc(a1-4)Gal(b1-3)GlcNAc
# Method in brief: as §1
# [69] = biological target: GlcNAc(a1-4)Gal(b1-4)GalNAc
# Method in brief: as §1
# [70] = biological target: GlcNAc(a1-4)Gal(b1-4)GlcNAc
# Method in brief: as §1
# [71] = biological target: GlcNAc(a1-4)Gal(b1-4)GlcNAc(b1-3)Gal(b1-4)Glc
# Method in brief: as §1
# [72] = biological target: GlcNAc(a1-4)Gal(b1-4)GlcNAc(b1-3)Gal(b1-4)GlcNAc
# Method in brief: as §1
# [73] = biological target: GlcNAc(a1-4)Gal(b1-4)GlcNAc(b1-3)Gal(b1-4)GlcNAc(b1-3)Gal(b1-4)GlcNAc
# Method in brief: as §1
# [74] = biological target: GlcNAc(a1-4)Gal(b1-4)GlcNAc(b1-3)Gal(b1-4)[Fuc(a1-3)]GlcNAc(b1-3)Gal(b1-4)[Fuc(a1-3)]GlcNAc
# Method in brief: as §1
# [75] = biological target: GlcNAc(a1-6)Gal(b1-4)GlcNAc
# Method in brief: as §1
binder,measurement,setting,value
B160 (Bifidobacterium sp) (protein) MVSHNKRIVAALAAVAAMGIGLAGCGGSDTAGDTKSGSDGGVVNITYMHRLPDSEGMTLVNDIVAKWNKEHPNIQVKATKFDGNAADMIKKLETDVKAGNAPDLAQVGYAEVPEVFTKGLLQDVTDEAAKYKDDFASGPFALMQVDGKTYGLPQDTGPLTYFYNAAEFEKLGITVPKTADELIETAKKTAAQGKYIMTFTPDEAMMMMSGQAGASGPWYKVDGNSWVVNTQTKGSKAVADVYQQLIDNKAALTNPRWDASFDNSIQSGQLIGTVAAAWEAPLFIDSAGGTGAGEWKVTQLGDWFGNGTKTGANGGSGVAVLKGSKHPAEAMEFLDWFNTQVDDLVSQGLVVAATTADAKTPQKWSDYFSGQDVMAEFKTANDNMGDFTYMPGFSAVGAAMKQTAAKAADGSAKVSDVFDTAQKTSVDTLKNLGLSVKE,glycan array binding signal (z-score),[1],-0.148
same,glycan array binding signal (z-score),[2],-0.054
same,glycan array binding signal (z-score),[3],-0.164
same,glycan array binding signal (z-score),[4],-0.156
same,glycan array binding signal (z-score),[5],-0.152
same,glycan array binding signal (z-score),[6],-0.187
same,glycan array binding signal (z-score),[7],-0.188
same,glycan array binding signal (z-score),[8],-0.133
same,glycan array binding signal (z-score),[9],-0.172
same,glycan array binding signal (z-score),[10],-0.161
same,glycan array binding signal (z-score),[11],-0.156
same,glycan array binding signal (z-score),[12],-0.151
same,glycan array binding signal (z-score),[13],-0.177
same,glycan array binding signal (z-score),[14],-0.199
same,glycan array binding signal (z-score),[15],-0.16
same,glycan array binding signal (z-score),[16],-0.159
same,glycan array binding signal (z-score),[17],-0.167
same,glycan array binding signal (z-score),[18],-0.172
same,glycan array binding signal (z-score),[19],-0.134
same,glycan array binding signal (z-score),[20],-0.188
same,glycan array binding signal (z-score),[21],-0.162
same,glycan array binding signal (z-score),[22],-0.166
same,glycan array binding signal (z-score),[23],-0.174
same,glycan array binding signal (z-score),[24],-0.112
same,glycan array binding signal (z-score),[25],-0.191
same,glycan array binding signal (z-score),[26],-0.156
same,glycan array binding signal (z-score),[27],-0.173
same,glycan array binding signal (z-score),[28],-0.142
same,glycan array binding signal (z-score),[29],-0.179
same,glycan array binding signal (z-score),[30],-0.225
same,glycan array binding signal (z-score),[31],-0.169
same,glycan array binding signal (z-score),[32],-0.18
same,glycan array binding signal (z-score),[33],-0.183
same,glycan array binding signal (z-score),[34],-0.157
same,glycan array binding signal (z-score),[35],-0.173
same,glycan array binding signal (z-score),[36],-0.167
same,glycan array binding signal (z-score),[37],-0.166
same,glycan array binding signal (z-score),[38],-0.185
same,glycan array binding signal (z-score),[39],-0.138
same,glycan array binding signal (z-score),[40],-0.17
same,glycan array binding signal (z-score),[41],-0.159
same,glycan array binding signal (z-score),[42],-0.18
same,glycan array binding signal (z-score),[43],-0.168
same,glycan array binding signal (z-score),[44],-0.15
same,glycan array binding signal (z-score),[45],-0.168
same,glycan array binding signal (z-score),[46],-0.154
same,glycan array binding signal (z-score),[47],0.202
same,glycan array binding signal (z-score),[48],-0.191
same,glycan array binding signal (z-score),[49],-0.196
same,glycan array binding signal (z-score),[50],-0.189
same,glycan array binding signal (z-score),[51],-0.163
same,glycan array binding signal (z-score),[52],-0.179
same,glycan array binding signal (z-score),[53],-0.117
same,glycan array binding signal (z-score),[54],-0.189
same,glycan array binding signal (z-score),[55],-0.177
same,glycan array binding signal (z-score),[56],-0.177
same,glycan array binding signal (z-score),[57],-0.149
same,glycan array binding signal (z-score),[58],-0.177
same,glycan array binding signal (z-score),[59],-0.158
same,glycan array binding signal (z-score),[60],-0.126
same,glycan array binding signal (z-score),[61],-0.171
same,glycan array binding signal (z-score),[62],-0.123
same,glycan array binding signal (z-score),[63],-0.178
same,glycan array binding signal (z-score),[64],-0.167
same,glycan array binding signal (z-score),[65],-0.16
same,glycan array binding signal (z-score),[66],-0.173
same,glycan array binding signal (z-score),[67],-0.176
same,glycan array binding signal (z-score),[68],-0.197
same,glycan array binding signal (z-score),[69],-0.125
same,glycan array binding signal (z-score),[70],-0.181
same,glycan array binding signal (z-score),[71],-0.18
same,glycan array binding signal (z-score),[72],-0.177
same,glycan array binding signal (z-score),[73],-0.145
same,glycan array binding signal (z-score),[74],-0.068
same,glycan array binding signal (z-score),[75],-0.172
